Drawing on a collection of fitness landscapes (doi:10.1126/science.1257360), this text covers enrichment ratio for 153 variants.

To fix the notation:
B1: PhoQ; a variant is named by its letters at X, in order, P23837 (parent)
chain: MKKLLRLFFPLSLRVRFLLATAAVVLVLSLAYGMVALIGYSVSFDKTTFRLLRGESNLFYTLAKWENNKLHVELPENIDKQSPTMTLIYDENGQLLWAQRDVPWLMKMIQPDWLKSNGFHEIEADVNDTSLLLSGDHSIQQQLQEVREDDDDAEMTHSVAVNVYPATSRMPKLTIVVVDTIPVELKSSYMVWSWFIYVLSANLLLVIPLLWVAAWWSLRPIEALAKEVRELEEHNRELLNPATTRELTSLVRNLNRLLKSERERYDKYRTTLTDLTHSLKTPLXXLQXXLRSLRSEKMSVSDAEPVMLEQISRISQQIGYYLHRASMRGGTLLSRELHPVAPLLDNLTSALNKVYQRKGVNISLDISPEISFVGEQNDFVEVMGNVLDNACKYCLEFVEISARQTDEHLYIVVEDDGPGIPLSKREVIFDRGQRVDTLRPGQGVGLAVAREITEQYEGKIVAGESMLGGARMEVIFGRQHSAPKDE

Some of the results follow.

The variants in this test derive from B1. Nature of the test: enrichment ratio after two sorts for PhoP signalling (ratio (wild type AVST 3.29)); higher = more functional. As to conditions: with PhoP (E. coli).
For PPDF, the enrichment ratio was at most 0.25.

For DSWP, the enrichment ratio was at most 0.25.

Regarding FMDC, the enrichment ratio was at most 0.25.

VICF: the enrichment ratio came out at 1.1.

For VFEC, the enrichment ratio was at most 0.25.

YGQR: the enrichment ratio was at most 0.25.

With LFSA, the enrichment ratio is at most 0.25.

On to WLMW, for which the enrichment ratio is at most 0.25.

Take VEST: the enrichment ratio is 4.04.

On to RIMN, for which the enrichment ratio was at most 0.25.

With TLTN, the enrichment ratio was determined as 7.17.

QLER: the enrichment ratio was at most 0.25.

In the case of VKLW, the enrichment ratio was at most 0.25.

As to INLG, the enrichment ratio came to 2.36.

Take FFTW: the enrichment ratio is at most 0.25.

For RPFI, the enrichment ratio was at most 0.25.

With YDNR, the enrichment ratio is at most 0.25.

Regarding LWNW, the enrichment ratio is at most 0.25.

On to PIPM, for which the enrichment ratio is at most 0.25.

For the variant PSQR, the enrichment ratio was at most 0.25.

Regarding KGVI, the enrichment ratio is at most 0.25.

As for NHGN, the enrichment ratio was at most 0.25.

Take AQDL: the enrichment ratio is at most 0.25.

In the case of HMIL, the enrichment ratio is at most 0.25.

For NGWT, the enrichment ratio was at most 0.25.

Turning to PCDF, the enrichment ratio was at most 0.25.

Consider VPHV, for which the enrichment ratio was at most 0.25.

HNVP: the enrichment ratio is at most 0.25.

In the case of DMIV, the enrichment ratio was at most 0.25.

Take VCRN: the enrichment ratio is at most 0.25.

With NYAG, the enrichment ratio is at most 0.25.

As to YFNI, the enrichment ratio is at most 0.25.

HCPK: the enrichment ratio was at most 0.25.

With RNAR, the enrichment ratio is at most 0.25.

For the variant GEMY, the enrichment ratio is at most 0.25.

As for DNPT, the enrichment ratio was at most 0.25.

For EPPL, the enrichment ratio was at most 0.25.

With TRQE, the enrichment ratio is at most 0.25.

With HYRD, the enrichment ratio is at most 0.25.

In the case of HGMV, the enrichment ratio is 1.32.

Regarding RATP, the enrichment ratio was at most 0.25.

In the case of LWQM, the enrichment ratio is at most 0.25.

In the case of GFRK, the enrichment ratio was at most 0.25.

With ADMT, the enrichment ratio is at most 0.25.

For ASVE, the enrichment ratio is 21.7.

Turning to YSWT, the enrichment ratio is at most 0.25.

As for GNGE, the enrichment ratio was at most 0.25.

For RYQG, the enrichment ratio is at most 0.25.

In the case of ALIT, the enrichment ratio is at most 0.25.

LEML: the enrichment ratio was at most 0.25.

With QFAW, the enrichment ratio is at most 0.25.

As to DYIW, the enrichment ratio is at most 0.25.

On to LEHP, for which the enrichment ratio was at most 0.25.

For FSSV, the enrichment ratio stood at 0.625.

Regarding LPSP, the enrichment ratio is at most 0.25.

As to KVPV, the enrichment ratio is at most 0.25.

Take HGNL: the enrichment ratio is at most 0.25.

On to LASR, for which the enrichment ratio is at most 0.25.

VNLY: the enrichment ratio is at most 0.25.

For TEFF, the enrichment ratio was determined as 6.49.

In the case of HNDP, the enrichment ratio is at most 0.25.

For RSQK, the enrichment ratio is at most 0.25.

Consider GAQF, for which the enrichment ratio is at most 0.25.

For FGFH, the enrichment ratio was at most 0.25.

Take QAPG: the enrichment ratio is at most 0.25.

As to PISI, the enrichment ratio is at most 0.25.

For RQSC, the enrichment ratio is at most 0.25.

Take DMFH: the enrichment ratio was at most 0.25.

For IHKI, the enrichment ratio is at most 0.25.

Regarding NFRA, the enrichment ratio was at most 0.25.

For SIIS, the enrichment ratio is 1.84.

Consider FWEP, for which the enrichment ratio was at most 0.25.

In the case of DDER, the enrichment ratio is at most 0.25.

As for YNTL, the enrichment ratio is at most 0.25.

As for ETEP, the enrichment ratio was at most 0.25.

Take YKDL: the enrichment ratio is at most 0.25.

For MVAC, the enrichment ratio is at most 0.25.

Consider WPHT, for which the enrichment ratio was at most 0.25.

With YRTQ, the enrichment ratio is at most 0.25.

As for DHRG, the enrichment ratio was at most 0.25.

Turning to KENV, the enrichment ratio was at most 0.25.

Regarding PPYM, the enrichment ratio was at most 0.25.

As to QMTH, the enrichment ratio was at most 0.25.

Turning to EDFK, the enrichment ratio was at most 0.25.

For VHEW, the enrichment ratio is at most 0.25.

Turning to TSGQ, the enrichment ratio worked out at 7.96.

For ITNS, the enrichment ratio is at most 0.25.

With VIIY, the enrichment ratio was at most 0.25.

On to HMSP, for which the enrichment ratio is at most 0.25.

Take LTCL: the enrichment ratio was at most 0.25.

For the variant ATLL, the enrichment ratio was determined as 20.5.

Take MLGF: the enrichment ratio was 5.31.

Consider AFLV, for which the enrichment ratio worked out at 0.418.

In the case of IPFY, the enrichment ratio is at most 0.25.

MNLQ: the enrichment ratio is at most 0.25.

Regarding RVRR, the enrichment ratio is at most 0.25.

As to KHYL, the enrichment ratio is at most 0.25.

Regarding HDDC, the enrichment ratio is at most 0.25.

With HVLH, the enrichment ratio was at most 0.25.

Consider KADW, for which the enrichment ratio is at most 0.25.

Consider DDYG, for which the enrichment ratio is at most 0.25.

For INFS, the enrichment ratio was at most 0.25.

Take KTFT: the enrichment ratio is at most 0.25.

On to SMMD, for which the enrichment ratio was at most 0.25.

Consider NYPV, for which the enrichment ratio is at most 0.25.

For RVGG, the enrichment ratio is at most 0.25.

Take QKSN: the enrichment ratio is at most 0.25.

In the case of AYLI, the enrichment ratio worked out at 0.332.

As for FWRM, the enrichment ratio is at most 0.25.

As to ANQC, the enrichment ratio was at most 0.25.

Regarding EKVK, the enrichment ratio is at most 0.25.

On to GSRA, for which the enrichment ratio is at most 0.25.

On to HNVN, for which the enrichment ratio is at most 0.25.

For QANQ, the enrichment ratio is at most 0.25.

Take SRRL: the enrichment ratio was at most 0.25.

Take INTC: the enrichment ratio was at most 0.25.

In the case of QKID, the enrichment ratio is at most 0.25.

For MYLS, the enrichment ratio was at most 0.25.

As for NMNF, the enrichment ratio was at most 0.25.

For RDDK, the enrichment ratio is at most 0.25.

On to FYAM, for which the enrichment ratio is at most 0.25.

As to WGCI, the enrichment ratio is at most 0.25.

In the case of IVKR, the enrichment ratio was at most 0.25.

Take KRQL: the enrichment ratio was at most 0.25.

As for MNIM, the enrichment ratio is 12.3.

On to GPGI, for which the enrichment ratio was at most 0.25.

QRLN: the enrichment ratio is at most 0.25.

Turning to TMVV, the enrichment ratio was determined as 0.573.

Take DAVQ: the enrichment ratio was at most 0.25.

Turning to RRGV, the enrichment ratio was at most 0.25.

For APSF, the enrichment ratio was at most 0.25.

Turning to HAWP, the enrichment ratio is at most 0.25.

In the case of HQLM, the enrichment ratio turned out to be 1.87.

With QLGF, the enrichment ratio was 0.507.

Turning to TRDY, the enrichment ratio is at most 0.25.

On to FYDL, for which the enrichment ratio is at most 0.25.

GEIN: the enrichment ratio was at most 0.25.

Regarding FRWW, the enrichment ratio is at most 0.25.

With VCYK, the enrichment ratio is at most 0.25.

For the variant WGRF, the enrichment ratio was at most 0.25.

With AICN, the enrichment ratio was 18.7.

For the variant THRS, the enrichment ratio was at most 0.25.

PPED: the enrichment ratio was at most 0.25.

In the case of GDLD, the enrichment ratio was at most 0.25.

As to TLVI, the enrichment ratio is at most 0.25.

With WEAQ, the enrichment ratio is at most 0.25.

As for AFLY, the enrichment ratio amounted to 0.967.

MFQF: the enrichment ratio is at most 0.25.

As for GRDW, the enrichment ratio is at most 0.25.

As to IESE, the enrichment ratio was at most 0.25.

For the variant QFCQ, the enrichment ratio was at most 0.25.

As to HMWM, the enrichment ratio was at most 0.25.

Take IFET: the enrichment ratio was at most 0.25.
